# Data taken from the supplement of paper PMC10600219.
# Structures can show the parent of a compound that is named as a salt. The full ranking holds about 2,800 compounds; the median of “cell viability relative to vehicle” is about 0.98, and the lowest 2% start at about 0.45. Some of the results follow.
# System: NCI-H2228 alectinib-DTP
# Experiment: cell viability relative to vehicle (fraction of vehicle); NCI-H2228 is an ALK-positive lung cancer line and DTP means drug-tolerant persister; higher = less growth inhibition
# Settings: 100 nM; treatment time 6 days
# In short: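 Each value is viability relative to vehicle-treated cells, measured as ATP with the CellTiter-Glo 3D Cell Viability Assay. Parental NCI-H2228 cells and drug-tolerant persisters (1000 nM targeted drug, 13 days) in 384-well plates received the 3114-agent TargetMol anti-cancer compound library at 100 nM, or DMSO, and were read 6 days later.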
row,Compound,cell viability
1,O=c1cc(-c2ccccc2)oc2cc(O)cc(O)c12 [Chrysin],0.861
2,O=c1sn(-c2cccc3ccccc23)c(=O)n1Cc1ccccc1 [Tideglusib],0.82
3,Cc1noc(-c2ccc(-c3ccc(CC(=O)O)cc3)cc2)c1NC(=O)O[C@H](C)c1ccccc1,0.874
4,CC(C)=CCC[C@](C)(O[C@@H]1O[C@H](CO)[C@@H](O)[C@H](O)[C@H]1O)[C@H]1CC[C@]2(C)[C@@H]1[C@H](O)C[C@@H]1[C@@]3(C)CC[C@H](O)C(C)(C)[C@@H]3[C@@H](O[C@@H]3O[C@H](CO)[C@@H](O)[C@H](O)[C@H]3O)C[C@]12C [Ginsenoside Rg1],0.947
5,O=C1NCCc2[nH]c(-c3ccncc3)cc21,0.998
6,Cc1ccc(NC(=O)c2cccc(N(C)C)c2)cc1NC(=O)c1ccc(O)cc1,0.899
7,COc1ccc(S(=O)(=O)Nc2cccnc2Nc2ccc(O)cc2)cc1,0.905
8,CCNC(=O)CCC/C=C\C[C@@H]1[C@@H](/C=C/[C@@H](O)CCc2ccccc2)[C@H](O)C[C@@H]1O [Bimatoprost],0.982
9,COC(=O)C1=C(C)NC(C)=C(C(=O)OC2CCCN(Cc3ccccc3)C2)C1c1cccc([N+](=O)[O-])c1 (configuration not stated) [Benidipine hydrochloride],1.04
10,O=C(Cl)C(=O)c1c[nH]c2ccccc12 [Indole-3-Glyoxylyl Chloride],1.1
11,O=C(CCCCCCC(=O)Nc1ccccc1)NO [Vorinostat],0.786
12,O=C(/C=C/c1ccc(O)c(O)c1)c1ccc(O)cc1O [Butein],1.03
13,CCN(CC)CCOc1ccc2c(c1)C(=O)c1cc(OCCN(CC)CC)ccc1-2 [Tilorone dihydrochloride],1.03
14,O=C(O)c1ccc2c(c1)nc(Nc1cccc(Cl)c1)c1ccncc12 [Silmitasertib],0.834
15,"COc1ccc(C=CC(=O)O)cc1OC [3,4-Dimethoxycinnamic acid]",0.979
16,Nc1[nH]nc2nnc(-c3c(-c4ccccc4)nn4ccccc34)cc12,1.15
17,Cc1cc(NS(=O)(=O)c2ccc(N)cc2)no1 [Sulfamethoxazole],1
18,C=C1CC[C@@H]2[C@](C)(CO[C@@H]3O[C@H](CO)[C@@H](O)[C@H](O)[C@H]3O)CCC[C@@]2(C)[C@@H]1CCC1=CCOC1=O [Neoandrographolide],0.966
19,CC(C)N(CCCNC(=O)Nc1ccc(C(C)(C)C)cc1)C[C@H]1O[C@@H](n2cc(Br)c3c(N)ncnc32)[C@H](O)[C@@H]1O,0.881
20,COc1cc(O)c2c(=O)c(O[C@@H]3O[C@H](CO)[C@@H](O)[C@H](O)[C@H]3O)c(-c3ccc(O[C@@H]4O[C@H](CO)[C@@H](O)[C@H](O)[C@H]4O)cc3)oc2c1 [Complanatoside],1
21,C[C@H](CCC(=O)NCC(=O)O)[C@H]1CC[C@H]2[C@@H]3[C@H](O)C[C@@H]4C[C@H](O)CC[C@]4(C)[C@H]3CC[C@]12C [Glycochenodeoxycholic Acid],0.992
22,CC1(C)S[C@@H]2[C@H](NC(=O)C(C(=O)O)c3ccccc3)C(=O)N2[C@H]1C(=O)O (some centres not stated) [Carbenicillin disodium],0.917
23,CCN(CC)CCOC(=O)C(Cc1cccc2ccccc12)CC1CCCO1 (configuration not stated) [Nafronyl oxalate],1.03
24,CC(C)NCC(O)COc1ccc(COCCOC(C)C)cc1 (racemic) [(±)-Bisoprolol hemifumarate],1.1

row,Compound,cell viability
1,Cn1cc(-c2nc(N[C@@H]3CCCC[C@@H]3N)c(F)c3c2C(=O)NC3)cn1 [TAK-659 hydrochloride],1
2,CC1CCC2(OC1)OC1CC3C4CCC5CC(O)CCC5(C)C4CCC3(C)C1C2C (configuration not stated) [Spirostan-3-ol],1.11
3,C[C@H](N)[C@H](O)c1cccc(O)c1 [Metaraminol bitartrate],0.877
4,Clc1ccc(C(c2c[nH]c3ccccc23)c2c[nH]c3ccccc23)cc1,0.929
5,CC(C)OC(=O)C1=CN(C(=O)c2ccc(F)c(F)c2)CC(C)(C)c2c1[nH]c1ccccc21 [Turofexorate Isopropyl],0.847
6,CN(CCNc1ccnc2cc(Cl)ccc12)CCNc1ccnc2cc(Cl)ccc12,0.979
7,O=C(/C=C\n1cnc(-c2cc(C(F)(F)F)cc(C(F)(F)F)c2)n1)N1CC(F)(F)C1,0.774
8,CC(C)(C)[N+]([O-])=Cc1ccc(S(=O)(=O)O)cc1S(=O)(=O)O,0.951
9,CC(=O)OC(C)(C)CCC(=O)[C@](C)(O)[C@H]1[C@H](O)C[C@@]2(C)[C@@H]3CC=C4[C@@H](C[C@H](O)[C@@H](O)C4(C)C)[C@]3(C)C(=O)C[C@]12C [Cucurbitacin IIA],1.07
10,O=C[C@H](O)[C@@H](O)[C@H](O)[C@H](O)CO[C@H]1O[C@H](CO[C@H]2O[C@H](CO)[C@H](O)[C@H](O)[C@H]2O)[C@H](O)[C@H](O)[C@H]1O [Manninotriose],1.14
11,C[C@]12CC[C@@H]3c4ccc(OC(=O)c5ccccc5)cc4CC[C@H]3[C@@H]1CC[C@@H]2O [Estradiol benzoate],1.15
12,Cc1ccc(F)c(NC(=O)Nc2ccc(-c3cccc4[nH]nc(N)c34)cc2)c1 [Linifanib],0.881
13,CC(=O)OC(C)OC(=O)C(C)c1ccc(-c2ccccc2)c(F)c1 (configuration not stated) [Flurbiprofen Axetil],0.965
14,CC[C@@H](C)Nc1cc(C(=O)N[C@H]2C[C@H]3CC[C@@H](C2)N3c2ccc(C(=O)C3CC3)cn2)c(C)cc1C(N)=O,0.497
15,CN(c1nccc(=O)[nH]1)C1CCN(c2nc3ccccc3n2Cc2ccc(F)cc2)CC1 [Mizolastine],0.895
16,OCCN(CCO)c1nc(N2CCCCC2)c2nc(N(CCO)CCO)nc(N3CCCCC3)c2n1 [Dypyridamole],0.968
17,CC[C@H](CO)Nc1nc(NCc2ccccc2)c2ncn(C(C)C)c2n1 [Roscovitine],0.956
18,CCn1c2ccccc2c2cc(CNCc3ccccc3OC)ccc21 [HLCL-61 hydrochloride],0.954
19,Cc1cccc(CC(=O)N2CCc3c2ccc(-c2cn(C)c4ncnc(N)c24)c3F)n1,1
20,C[C@@H]1C[C@H]2[C@@H]3CCC4=CC(=O)C=C[C@]4(C)[C@@]3(F)[C@@H](O)C[C@]2(C)[C@@]1(O)C(=O)COP(=O)(O)O [Dexamethasone Sodium Phosphate],0.734
21,COc1ccc(-n2c(SCCCN3C(=O)c4cccc5cccc(c45)C3=O)nnc2-c2ccncc2)cc1,0.898
22,Cc1c(-c2cnccn2)ssc1=S [Oltipraz],1.01
23,Cc1ccc(=O)n(-c2ccccc2)c1 [Pirfenidone],0.838
24,N#Cc1cc2cc(CN3CCC(Nc4ncnc5sc(CC(F)(F)F)cc45)CC3)ccc2[nH]1,1.04

row,Compound,cell viability
1,Nc1c2ccccc2nc2ccccc12 [Aminacrine],1.01
2,CNc1nc(-c2cccc(NC(=O)c3ccc(C(=O)OC)cc3)c2)c2cc(OC)c(OC)cc2n1 [Lotamilast],1.09
3,CCN1CCN(Cc2ccc(C(=O)Nc3ccc(C)c(Oc4ccc5c(c4)CC(=O)N5)c3)cc2C(F)(F)F)CC1,1.02
4,"N[C@@H](Cc1cc(I)c(Oc2ccc(O)c(I)c2)c(I)c1)C(=O)O [O-(4-Hydroxy-3-iodophenyl)-3,5-diiodo-L-tyrosine]",0.898
5,N[C@@H](Cc1cc(I)c(Oc2ccc(O)c(I)c2)c(I)c1)C(=O)O [Liothyronine sodium],1.02
6,COc1cc(N2CCOCC2)ccc1Nc1ncc(F)c(Nc2ccccc2NS(C)(=O)=O)n1,1.08
7,O=C(Oc1cc(S(=O)(=O)c2ccccc2)ccc1[N+](=O)[O-])c1ccc(Cl)cc1,1.07
8,COc1ccc(C2CC(=O)c3c(O)cc(OC4OC(COC5OC(C)C(O)C(O)C5O)C(O)C(O)C4O)cc3O2)cc1OC (configuration not stated) [Methyl hesperidin],1.04
9,NC(=O)c1ccc(OCCCN2CC3CCCC3C2)cc1 (configuration not stated),1.11
10,CCOC(=O)/C=C/c1ccc(O)c(O)c1 [Ethyl caffeate],1.02
11,Cc1cc(CN2CCN(c3c(Br)cnc4nc(-c5ccc(N6CCN(C)CC6)cc5)[nH]c34)CC2)no1,0.905
12,C=CC(=O)N1C/C(=C\c2ccc([N+](=O)[O-])cc2)C(=O)/C(=C/c2ccc([N+](=O)[O-])cc2)C1,1.01
13,CNc1nc(Nc2cn(C(C)(C)C#N)nc2C)ncc1C(F)(F)F,1.01
14,CC(C)(O)CNc1ncc(-c2ccnc(Nc3ccnc(Cl)c3)n2)c(CC2CC2)n1,0.904
15,Cn1c(-c2ccccc2C(F)(F)F)nnc1C12CCC(c3noc(C4CC(F)(F)C4)n3)(CC1)CC2,1.2
16,COCCCN1CCC(NC(=O)c2cc(Cl)c(N)c3c2OCC3)CC1 [Prucalopride],1.03
17,CCCCCCNC(=O)Nc1ccc(S(=O)(=O)Nc2ccc(CCNC[C@H](O)COc3ccc(O)cc3)cc2)cc1,1.21
18,O=C(Nc1ccncc1)c1cc([N+](=O)[O-])ccc1Cl,0.871
19,c1nc2c(NC3CCCCC3)nc(Nc3ccc(N4CCOCC4)cc3)nc2[nH]1 [Reversine],0.973
20,COc1cc2nccc(Oc3ccc(NC(=O)NC4CC4)c(Cl)c3)c2cc1C(N)=O [Lenvatinib],0.993
21,"CC(C)=CCC(OC(=O)C=C(C)C)C1=CC(=O)c2c(O)ccc(O)c2C1=O (stereo not drawn) [beta, beta-dimethylacrylshikonin]",0.892
22,COc1ccc(S(=O)(=O)N[C@@H](CNc2nc(C)nc(N3CCC(c4ccc5c(n4)NCCC5)CC3)c2C)C(=O)O)cc1,0.626
23,CCC(C)(Oc1ccc(C2(c3ccc(OC(C)(CC)C(=O)O)cc3)CCCCC2)cc1)C(=O)O (configuration not stated) [Clinofibrate],1.09
24,CNc1cc(-c2cccc(Cl)c2Cl)nc(N)n1 [TH287 hydrochloride],1.08
